The values below come from PubChem BioAssay AID360 (National Center for Advancing Translational Sciences (NCATS), 2006).

Out of some 48,000 compounds screened, about 550 (1.1%) were called active. About 4% were inconclusive and are not listed. No stated cut-off is given here; in the data, active means potency below about 15 µM; inconclusive means mostly about 16 µM to 33 µM; inactive means weaker than that. The list shows a part of the results.
Potency means the concentration at half of the fitted maximal effect.

The test concerns the target Lysosomal acid glucosylceramidase (Homo sapiens) (UniProt P04062). Put plainly: Glucocerebrosidase.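 Further: the screen sought inhibitors.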 To be noted: purified enzyme, resorufin glucoside fluorescence (screen aimed at inhibitors), 20 min. In short, it runs like this: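 Wild-type enzyme at 0.2 nM final in 50mM citric acid/KH2PO4, 10mM sodium taurocholate, 0.01% tween-20, pH 5.9, with resorufin beta-D-glucopyranoside at 30 uM final. Compounds titrated, 20 min at RT, red fluorescence read; AC50 from titration.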
Sequence of UniProt P04062 (P04062 whole entry, looked up): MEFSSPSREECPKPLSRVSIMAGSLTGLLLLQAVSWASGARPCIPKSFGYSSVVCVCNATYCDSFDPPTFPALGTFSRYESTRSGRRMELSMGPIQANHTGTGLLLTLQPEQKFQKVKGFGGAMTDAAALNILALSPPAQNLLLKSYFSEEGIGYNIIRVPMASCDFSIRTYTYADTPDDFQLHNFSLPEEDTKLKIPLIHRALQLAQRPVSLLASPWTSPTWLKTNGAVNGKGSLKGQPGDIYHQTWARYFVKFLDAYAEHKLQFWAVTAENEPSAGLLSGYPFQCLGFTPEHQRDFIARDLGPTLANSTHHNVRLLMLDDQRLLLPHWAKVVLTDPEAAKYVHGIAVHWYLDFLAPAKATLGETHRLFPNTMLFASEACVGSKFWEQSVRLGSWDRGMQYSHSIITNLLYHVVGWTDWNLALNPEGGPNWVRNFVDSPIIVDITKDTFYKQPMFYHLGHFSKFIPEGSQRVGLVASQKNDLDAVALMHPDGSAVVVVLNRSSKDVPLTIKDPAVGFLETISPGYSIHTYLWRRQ
On to `O=C(CN1CCCCCC1)NCCc1ccc(F)cc1`, for which the Potency was inactive: > 76.9 µM. Turning to `COc1ccc(F)cc1CN1CCN(c2cc(C)nc3c4c(C)cc(C)nc4nn23)CC1`, the Potency was inactive: > 76.9 µM.

As for `Cc1ccnc(NS(=O)(=O)c2ccc(NC(=O)C3CCCCC3C(=O)O)cc2)n1` (stereo not drawn), the Potency is inactive: > 76.9 µM. For the molecule `O=C1CC(N2CCC(c3nc4ccccc4o3)CC2)C(=O)N1c1ccc(Cl)cc1` (stereo not drawn), the Potency is inactive: > 76.9 µM.

Turning to `CCN(CCCNC(=O)COc1cc(=O)n(CC)c2ccccc12)Cc1ccccc1`, the Potency is inactive: > 76.9 µM. For `CCN(CC)C(=O)c1cc(-c2ccc(Br)cc2)on1`, the Potency is inactive: > 76.9 µM. Regarding `O=C(COc1ccc(S(=O)(=O)N2CCc3ccccc32)cc1Cl)NCc1ccccn1`, the Potency was inactive: > 76.9 µM. `CC(C)Oc1ccc(CNCC2(O)CCOC(C)(C)C2)cc1` (stereo not drawn): the Potency was inactive: > 76.9 µM. `Cc1ccc(N(CC(=O)NCc2ccc3c(c2)OCO3)S(C)(=O)=O)cc1`: the Potency is inactive: > 76.9 µM.

As to `C=CCN(C(=O)CSc1nc2[nH]ncc2c(=O)n1-c1ccccc1OC)c1ccccc1`, the Potency is inactive: > 76.9 µM. For `O=C(CN1CCN(C(=O)c2cccc(F)c2)CC1)NC1CCCCC1` the value was inactive: > 76.9 µM; for `COc1ccc(CCNC(=O)C2CCN(S(=O)(=O)c3c(C)noc3C)CC2)cc1OC`, inactive: > 76.9 µM. For `Cc1nn(-c2ccc(F)cc2)c2nc(N)c(C#N)c(-c3cccs3)c12` the value was inactive: > 76.9 µM. For `CN(C)c1ccc(C(=O)OCC(=O)c2cccs2)cc1`, the Potency was inactive: > 76.9 µM.

Consider `COc1ccccc1-c1nnc2sc(COc3ccc(Cl)cc3)nn12`, for which the Potency was inactive: > 76.9 µM.

In the case of `O=C(CCNc1cccc(Cl)c1)c1ccco1`, the Potency was inactive: > 76.9 µM.

Regarding `CCOc1nc(Nc2ccc(-c3nc4ccccc4o3)cc2)nc(N2CCOCC2)n1`, the Potency was inactive: > 76.9 µM. Consider `Cn1c2ccc(F)cc2c2ncn(CCN3CCOCC3)c(=O)c21`, for which the Potency was inactive: > 76.9 µM. Consider `O=C(Nc1nc(-c2cccnc2)cs1)c1ccc(S(=O)(=O)N2CCOCC2)cc1`, for which the Potency was inactive: > 76.9 µM. For `CC(=O)Oc1ccc(N(C(C)=O)S(=O)(=O)c2cccs2)cc1` the value was inactive: > 76.9 µM; for `COc1ccc2nc(C)cc(C(=O)O)c2c1`, inactive: > 76.9 µM; for `CCCn1cnc2cc(NCc3cccc(OC)c3)ccc21`, “inactive”. The figure for `Cc1cc(=O)n2c(C)n[nH]c2n1` is inactive: > 76.9 µM. Regarding `Cn1c(=O)c2c(nc(Oc3ccccn3)n2C)n(C)c1=O`, the Potency is inactive: > 76.9 µM. For `Cc1cc(N2CCN(C(=O)c3ccco3)CC2)n2ncnc2n1` the value was inactive: > 76.9 µM; for `Cc1cc(C)nc(NC(=O)Nc2ccccc2C(F)(F)F)n1`, inactive: > 76.9 µM.

With `O=C(COc1ccccc1)N1CCN(C(=O)c2cccs2)CC1`, the Potency is inactive: > 76.9 µM. Consider `Cc1ccc2cc(CN(Cc3ccc4c(c3)OCO4)Cc3nnnn3Cc3ccco3)c(=O)[nH]c2c1`, for which the Potency was inactive: > 76.9 µM. For the molecule `COc1ccc(-n2c(C)cc(C(=O)Cn3c(NCCO)nc4ccccc43)c2C)cc1`, the Potency entry was “inactive”. Consider `C=CCc1c(C)[nH]c(=S)c(C#N)c1C`, for which the Potency is inactive: > 76.9 µM. As to `Cc1cc(C)cc(NC(=O)CSc2nnc(-c3ccccc3C)o2)c1`, the Potency is inactive: > 76.9 µM. For `Clc1cc(Cl)c2nc(N3CCCCC3)sc2c1`, the Potency was inactive: > 76.9 µM. The figure for `N#Cc1c(N)sc(=S)c2c1CCCC2` is inactive: > 76.9 µM.

On to `CCOC(=O)N1CCN(C(=O)c2ccc(Cl)c(S(=O)(=O)N3CCOCC3)c2)CC1`, for which the Potency was inactive: > 76.9 µM. With `Cc1cnc(C(=O)Nc2cccc(-c3nnc4n3CCCCC4)c2)cn1`, the Potency was inactive: > 76.9 µM.

Regarding `CCOC(=O)C1=C(C)NC(=O)NC1c1ccccc1Cl` (stereo not drawn), the Potency was inactive: > 76.9 µM.

For the molecule `O=C(Cn1c(=O)oc2ccccc21)N1CCCCC1`, the Potency is inactive: > 76.9 µM. With `COc1ccc(CCC2(C)NC(=O)NC2=O)cc1` (stereo not drawn), the Potency was inactive: > 76.9 µM. Consider `Cc1ccnc(NC(=O)Nc2ccc3c(c2)N(C)C(=O)CS3)c1`, for which the Potency is inactive: > 76.9 µM. For the molecule `CN(C)c1ccc(-c2nnn(CC(=O)Nc3ccccc3N3CCOCC3)n2)cc1`, the Potency was inactive: > 76.9 µM. With `COc1ccc(CCNC(=O)COc2ccc(S(=O)(=O)N3CCOCC3)cc2)cc1`, the Potency is inactive: > 76.9 µM.

In the case of `O=C(NCC1CCCO1)c1cccc(Br)c1` (stereo not drawn), the Potency was inactive: > 76.9 µM. Turning to `Cc1cc(C)c(NC(=O)CN2C(=O)NC3(CCCCC3)C2=O)c(Cl)c1`, the Potency was inactive: > 76.9 µM. On to `O=C(c1ccco1)n1c(=S)nc2ccccn21`, for which the Potency is inactive: > 76.9 µM. Regarding `O=C(Nc1ccc2c(c1)oc1ccccc12)c1ccc2c(c1)OCO2`, the Potency was inactive: > 76.9 µM.

With `Nc1c(N2CCCCC2)c(=O)[nH]c(=O)n1-c1ccccc1`, the Potency is inactive: > 76.9 µM.

As to `CCC(=O)N1Cc2ccccc2-c2ccccc2C1=O`, the Potency is inactive: > 76.9 µM. `CC1(C)NC(=O)NC2(C)NC(=O)NC(C)(C)C12` (stereo not drawn): the Potency is inactive: > 76.9 µM. In the case of `COCc1[nH]nc2c1C1(C(=O)N(C)c3ccccc31)C(C#N)=C(N)O2` (stereo not drawn), the Potency is inactive: > 76.9 µM. Turning to `O=c1c2[nH]c3ccccc3c2ncn1C1CCCCC1`, the Potency is inactive: > 76.9 µM. The figure for `Cc1c(C(=O)N2CCN(S(C)(=O)=O)CC2)oc2ccccc12` is inactive: > 76.9 µM. With `N#CC1=C2SCN(Cc3ccccc3)CN2C(=O)CC1c1ccc2c(c1)OCO2` (stereo not drawn), the Potency was inactive: > 76.9 µM. For `CCCn1nnnc1NCc1ccccc1OCc1ccc(F)cc1` the value was inactive: > 76.9 µM. Take `CCN(CC)CCN1C(=O)C(O)=C(C(C)=O)C1c1ccccc1` (stereo not drawn): the Potency is inactive: > 76.9 µM.

Regarding `COCCCNC(=O)c1cn(Cc2c(F)cccc2Cl)nn1`, the Potency is inactive: > 76.9 µM. With `Clc1ccc(OCc2nnc(-c3ccccc3Br)o2)cc1`, the Potency is inactive: > 76.9 µM. For `CCCS(=O)(=O)c1c(S(=O)(=O)CCC)c2cnccn2c1C(=O)c1ccc(F)cc1` the value was inactive: > 76.9 µM; for `Cc1nc2c3ccccc3[nH]c(=O)n2n1`, inactive: > 76.9 µM. `O=c1c2ccccc2c(C=NCCO)c(O)n1-c1ccccc1`: the Potency is inactive: > 76.9 µM. Take `O=C(CN1C(=O)C2CCc3[nH]c4ccccc4c3C2C1=O)N1CCCC1` (stereo not drawn): the Potency was inactive: > 76.9 µM.

In the case of `COC(=O)COc1ccc2oc(=O)cc(C)c2c1`, the Potency is inactive: > 76.9 µM.

`NC(=O)CSc1nnc(-c2ccc(S(=O)(=O)N3CCCC3)cc2)n1CC1CCCO1` (stereo not drawn): the Potency is inactive: > 76.9 µM. On to `O=S(=O)(NCc1cccnc1)c1ccc(Cl)c(Cl)c1Cl`, for which the Potency was inactive: > 76.9 µM.

`NC(=O)CSc1nc2sc3c(c2c2ncnn12)CCCC3`: the Potency is inactive: > 76.9 µM. For `O=C(CN1CCN(C(c2ccccc2)c2ccccc2)CC1)N1CCOCC1` the value was inactive: > 76.9 µM; for `O=C(CN1C(=O)c2ccccc2C1=O)N1CCN(c2ccccc2)CC1`, inactive: > 76.9 µM; for `Cc1cc(NC(c2cccnc2)c2c(C)[nH]c3ccccc23)no1` (stereo not drawn), inactive: > 76.9 µM. In the case of `O=C(CSc1nnc(-c2cccnc2)o1)Oc1ccccc1`, the Potency is inactive: > 76.9 µM. For `CCOC(=O)C1CCN(C=Nc2cc(C)on2)CC1` the value was inactive: > 76.9 µM; for `COc1ccc(C(=O)N2CCN(C(C)=O)CC2)cc1S(=O)(=O)NCc1ccc(Cl)cc1`, inactive: > 76.9 µM. `CC(NC(=O)C1CC=CCC1C(=O)O)C1CC2CCC1C2` (stereo not drawn): the Potency is inactive: > 76.9 µM.

For the molecule `COc1ccc(CN2CC(C(=O)NCc3cccc(OC)c3)CC2=O)cc1` (stereo not drawn), the Potency is inactive: > 76.9 µM. For the molecule `Cc1ccc(S(=O)(=O)N(Cc2cc3cc4c(cc3[nH]c2=O)OCCO4)CC2CCCO2)cc1` (stereo not drawn), the Potency is inactive: > 76.9 µM. `O=C(O)c1cc(NCc2ccc3c(c2)OCO3)ccc1N1CCOCC1`: the Potency is inactive: > 76.9 µM. Take `CCOC(=O)N1CCN(CC(=O)Nc2c(C(=O)OC)[nH]c3ccc(Cl)cc23)CC1`: the Potency is inactive: > 76.9 µM.

For `COC(=O)C1=C(C)Nc2ncnn2C1c1ccco1` (stereo not drawn), the Potency was inactive: > 76.9 µM. On to `Cc1nc(NCc2ccco2)c2c3c(sc2n1)CCC3`, for which the Potency is inactive: > 76.9 µM. Consider `COc1cc2[nH]c3c(N4CCN(c5ccccn5)CC4)ncnc3c2cc1OC`, for which the Potency was inactive: > 76.9 µM. In the case of `CC(C)c1nnc(NC(=O)c2c(O)c3cccc4c3n(c2=O)CC4)s1`, the Potency is inactive: > 76.9 µM.

Consider `CSc1ccccc1NC(=O)c1noc2c1CCC2`, for which the Potency is inactive: > 76.9 µM. For the molecule `Cc1cc(NC(=O)c2ocnc2C)no1`, the Potency is inactive: > 76.9 µM. On to `O=C(O)c1ccc(-n2c(-c3ccccc3)n[nH]c2=S)cc1`, for which the Potency was inactive: > 76.9 µM.

For the molecule `Cc1cc(C(F)(F)F)nn1-c1nc(-c2ccco2)cc(C(F)(F)F)n1`, the Potency result is “inactive”. For the molecule `CC1CCCC(C)N1C(=O)CSc1nnc(-c2cccs2)o1` (stereo not drawn), the Potency was inactive: > 76.9 µM. For `O=C(NCCO)c1nc(NCCO)c2ccccc2n1` the value was inactive: > 76.9 µM; for `Cc1cc(=O)n2nc(N3CCCC(C(=O)NCCc4ccccc4)C3)sc2n1` (stereo not drawn), inactive: > 76.9 µM. Take `Cn1c(=O)n(C)c2cc(S(=O)(=O)NCc3ccco3)ccc21`: the Potency is inactive: > 76.9 µM. `CCOc1ccccc1C(=O)NCCCN1CCN(CCCNC(=O)c2ccccc2OCC)CC1`: the Potency was inactive: > 76.9 µM.

With `COc1ccccc1CNc1ncnc2c1nnn2Cc1ccccc1`, the Potency was inactive: > 76.9 µM. Take `CCC(C)c1cc(S(=O)(=O)N2CCOCC2)ccc1OC` (stereo not drawn): the Potency is inactive: > 76.9 µM. For `CCCCC(SCC(=O)Nc1ccccc1)C(=O)O` (stereo not drawn), the Potency is inactive: > 76.9 µM. For the molecule `COc1cc(C(=O)NCCC(=O)NCCN2CCOCC2)cc(OC)c1OC`, the Potency is inactive: > 76.9 µM. `COc1ccc(CN2CC(C(=O)NCCN3CCOCC3)CC2=O)cc1` (stereo not drawn): the Potency was inactive: > 76.9 µM.
